Test results from article PMC8232828 (Nature methods, 2021).

Target: the molecule itself
Assay: PIE-FCCS

B1: amino-terminally SNAPf-tagged secretin receptor (receptor, UniProt P47872 23-440, looked up)
chain: HSTGALPRLCDVLQVLWEEQDQCLQELSREQTGDLGTEQPVPGCEGMWDNISCWPSSVPGRMVEVECPRFLRMLTSRNGSLFRNCTQDGWSETFPRPNLACGVNVNDSSNEKRHSYLLKLKVMYTVGYSSSLVMLLVALGILCAFRRLHCTRNYIHMHLFVSFILRALSNFIKDAVLFSSDDVTYCDAHRAGCKLVMVLFQYCIMANYSWLLVEGLYLHTLLAISFFSERKYLQGFVAFGWGSPAIFVALWAIARHFLEDVGCWDINANASIWWIIRGPVILSILINFILFINILRILMRKLRTQETRGNEVSHYKRLARSTLLLIPLFGIHYIVFAFSPEDAMEIQLFFELALGSFQGLVVAVLYCFLNGEVQLEVQKKWQQWHLREFPLHPVASFSNSTKASHLEQSQGTCRTSII
modifications: SNAPf tag covalently labeled with LD555p-BG (donor) or LD655-BG (acceptor); for PIE-FCCS with ATTO488-BG or DY549P1-BG
With B1 the “stoichiometry N” value was 2.
